Source: PubChem BioAssay AID488969 (Vanderbilt High Throughput Screening Facility, 2010)
Over roughly 110,000 compounds, “z-score” has its median near -0.1; the highest 2% begin near 2. This is one part of the list.

Target: Metabotropic glutamate receptor 8 (Rattus norvegicus) (UniProt P70579)
Assay: mGluR8 Gi/Go-coupled signaling modulation – cell-based, rat, thallium flux, HTS, primary screen (AID 488969)
Conditions: HEK293 rat mGluR8, GIRK (G protein-gated inwardly rectifying potassium channel) thallium flux, FluoZin2; at 10 µM; stronger effect = higher value; submaximal glutamate (EC20) added with thallium

UniProt P70579, sequence (P70579 whole entry, looked up): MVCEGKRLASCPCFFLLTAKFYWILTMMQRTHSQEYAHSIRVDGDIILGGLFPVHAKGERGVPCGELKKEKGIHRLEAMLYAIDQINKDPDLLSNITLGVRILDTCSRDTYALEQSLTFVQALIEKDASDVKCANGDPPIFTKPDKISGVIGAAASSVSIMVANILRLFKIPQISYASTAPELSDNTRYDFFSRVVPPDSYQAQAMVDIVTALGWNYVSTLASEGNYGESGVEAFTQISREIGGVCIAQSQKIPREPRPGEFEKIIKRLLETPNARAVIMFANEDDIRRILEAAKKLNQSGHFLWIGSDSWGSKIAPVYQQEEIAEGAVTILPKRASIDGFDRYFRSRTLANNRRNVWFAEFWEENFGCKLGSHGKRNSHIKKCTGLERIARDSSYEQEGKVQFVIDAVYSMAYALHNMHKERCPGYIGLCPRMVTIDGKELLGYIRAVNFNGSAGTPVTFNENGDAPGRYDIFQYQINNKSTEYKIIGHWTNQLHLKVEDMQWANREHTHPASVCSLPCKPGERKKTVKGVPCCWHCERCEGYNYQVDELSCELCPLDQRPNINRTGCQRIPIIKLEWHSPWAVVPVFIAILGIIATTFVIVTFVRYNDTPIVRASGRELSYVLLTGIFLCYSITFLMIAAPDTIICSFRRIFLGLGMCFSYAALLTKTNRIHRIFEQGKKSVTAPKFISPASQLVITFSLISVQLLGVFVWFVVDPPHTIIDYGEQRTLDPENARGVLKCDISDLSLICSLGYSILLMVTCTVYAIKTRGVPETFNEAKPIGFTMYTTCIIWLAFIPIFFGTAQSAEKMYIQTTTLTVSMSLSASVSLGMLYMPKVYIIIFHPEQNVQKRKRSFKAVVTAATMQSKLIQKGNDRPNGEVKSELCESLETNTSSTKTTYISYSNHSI

Row | Structure (SMILES) | z-score
1 | Cn1c(=O)c2c(O)cc(=O)n(-c3ccccc3)c2n(C)c1=O | -0.178
2 | COc1cccc(CN(Cc2cccnc2)S(=O)(=O)c2ccc(-n3cnnn3)c(C)c2)c1 | -0.768
3 | CCCCn1c(SCC(=O)NC(C)CC)nc2ccc(N3CCOCC3)cc2c1=O (stereo not given) | 0.126
4 | CCOC(=O)/C(N=Nc1c(C)n(C)n(-c2ccccc2)c1=O)=C(\C)O | -1.56
5 | Cc1ccccc1CS(=O)(=O)CCC(=O)NCCN1CCN(c2cccc(Cl)c2)CC1 | -1.31
6 | COc1cccc(C(c2nnnn2CS(=O)(=O)c2ccc(C)cc2)N2CCN(C)CC2)c1OC (stereo not given) | 0.319
7 | Cc1ccc(N=CC2=C(O)CC(c3cccc(Cl)c3)CC2=O)cc1 (stereo not given) | -0.158
8 | CCS(=O)(=O)c1ccc2c(c1)N(S(C)(=O)=O)CC(C(=O)NC1CC1)O2 (stereo not given) | -0.433
9 | CCOC(=O)CN1C(=O)C2Cc3ccccc3CN2C1=S (stereo not given) | -0.137
10 | O=C(Oc1ccc(Cl)c2cccnc12)c1cccc([N+](=O)[O-])c1 | 0.0891
11 | COc1ccc(N2C(=O)/C(=C/c3ccc([N+](=O)[O-])cc3)C=C2c2ccccc2)cc1 | -0.197
12 | COc1ccc(C(C)(C)C)cc1NC(=O)c1cncc(Br)c1 | -0.242
13 | O=S(=O)(Nc1nc2ccc(S(=O)(=O)N3CCCCC3)cc2s1)c1ccccc1 | -0.0175
14 | CC(=O)Nc1ccc(NCC(O)COc2ccccc2)cc1 (stereo not given) | -0.497
15 | O=C(NCc1cccnc1)c1cc(S(=O)(=O)N2CCCCC2)ccc1Cl | 0.175
16 | O=C(COC(=O)c1cccc(S(=O)(=O)N2CCCCC2)c1)NC1CCCc2ccccc21 (stereo not given) | -0.538
17 | CCCCN1C(=O)N(C)C2NC(=O)NC21 (stereo not given) | -0.136
18 | O=S(=O)(c1ccc(Br)cc1)n1ccc2ccccc21 | -0.883
19 | Nc1nc2ccccc2n1/N=C/c1ccc([N+](=O)[O-])s1 | -0.00295
20 | CCCCCCNCc1c(F)cccc1Cl | -0.733
21 | Cc1ccc(S(=O)(=O)N2CCCC2C(=O)Nc2nccs2)cc1 (stereo not given) | -0.579
22 | N#C/C(=C\Nc1ccccc1SC(F)(F)F)c1nc(-c2ccc(F)cc2)cs1 | 0.794
23 | COc1ccc(C/C(N)=N/OC(=O)COc2ccccc2C)cc1 | 0.0355
24 | CCOc1ccc(C(CC(=O)O)NS(=O)(=O)c2ccc(C)cc2)cc1OC (stereo not given) | 0.0551
25 | CN1CCN(C(=S)Nc2ccc([N+](=O)[O-])cc2)CC1 | -0.109
26 | Cc1ccc(NC(=O)CN2CC(C)SC2=NC2CCCCC2)cc1 (stereo not given) | 0.372
27 | ONC(=Nc1ccc(Cl)cc1)c1ccc(Cl)cc1 | -0.122
28 | CC(=O)c1c(C(C)=O)c(C)n(-c2ccc(C(=O)O)cc2)c1C | 0.0344
29 | Nn1c(SCC(=O)N2CCCCC2)nnc1-c1ccncc1 | -0.383
30 | CC(=O)c1c(C)[nH]c(C(=O)OCC(=O)N2CCc3ccccc32)c1C | -0.754
